Assay results published in the supplement of paper PMC8728848.
This is one part of the list.

Assays:
Test in all cases: glycan array binding signal (z-score within array); higher = stronger binding
Conditions in all cases: glycan notation: IUPAC condensed, linker removed
[1] = molecular target: Fuc(a1-2)[Gal(a1-4)]Gal(b1-4)GlcNAc
Procedure, shortened: (§1)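 From the Consortium for Functional Glycomics database, 3228 arrays were curated, keeping only those whose protein sequence was available. Binding is given as a within-array Z-score averaged across arrays sharing a protein sequence and across linkers. Negative Z-scores can be read as non-binding.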

[2] = molecular target: Fuc(a1-2)[GalNAc(a1-3)]Gal
Procedure, shortened: as §1

[3] = molecular target: Fuc(a1-2)[GalNAc(a1-3)]Gal(b1-3)GalNAc(a1-3)[Fuc(a1-2)]Gal(b1-4)GlcNAc
Procedure, shortened: as §1

[4] = molecular target: Fuc(a1-2)[GalNAc(a1-3)]Gal(b1-3)GlcNAc
Procedure, shortened: as §1

[5] = molecular target: Fuc(a1-2)[GalNAc(a1-3)]Gal(b1-3)GlcNAc(b1-2)Man(a1-3)[Fuc(a1-2)[GalNAc(a1-3)]Gal(b1-3)GlcNAc(b1-2)Man(a1-6)]Man(b1-4)GlcNAc(b1-4)GlcNAc
Procedure, shortened: as §1

[6] = molecular target: Fuc(a1-2)[GalNAc(a1-3)]Gal(b1-4)Glc
Procedure, shortened: as §1

[7] = molecular target: Fuc(a1-2)[GalNAc(a1-3)]Gal(b1-4)GlcNAc
Procedure, shortened: as §1

[8] = molecular target: Fuc(a1-2)[GalNAc(a1-3)]Gal(b1-4)GlcNAc(b1-2)Man(a1-3)[Fuc(a1-2)[GalNAc(a1-3)]Gal(b1-4)GlcNAc(b1-2)Man(a1-6)]Man(b1-4)GlcNAc(b1-4)GlcNAc
Procedure, shortened: as §1

[9] = molecular target: Fuc(a1-2)[GalNAc(a1-3)]Gal(b1-4)GlcNAc(b1-3)Gal(b1-4)GlcNAc
Procedure, shortened: as §1

[10] = molecular target: Fuc(a1-2)[GalNAc(a1-3)]Gal(b1-4)GlcNAc(b1-3)Gal(b1-4)GlcNAc(b1-3)Gal(b1-4)GlcNAc
Procedure, shortened: as §1

[11] = molecular target: Fuc(a1-2)[GalNAc(a1-3)]Gal(b1-4)[Fuc(a1-3)]GlcNAc
Procedure, shortened: as §1

[12] = molecular target: Fuc(a1-2)[GalNAc(a1-4)]Gal(b1-4)GlcNAc
Procedure, shortened: as §1

[13] = molecular target: Fuc(a1-2)[GalNAc(b1-3)]Gal
Procedure, shortened: as §1

[14] = molecular target: Fuc(a1-3)GlcNAc
Procedure, shortened: as §1

[15] = molecular target: Fuc(a1-3)[Gal(b1-4)]Glc6S
Procedure, shortened: as §1

[16] = molecular target: Fuc(a1-3)[Gal(b1-4)]GlcNAc
Procedure, shortened: as §1

[17] = molecular target: Fuc(a1-3)[Gal(b1-4)]GlcNAc(b1-2)Man(a1-3)[Fuc(a1-3)[Gal(b1-4)]GlcNAc(b1-2)Man(a1-6)]Man(b1-4)GlcNAc(b1-4)GlcNAc
Procedure, shortened: as §1

[18] = molecular target: Fuc(a1-3)[Gal(b1-4)]GlcNAc(b1-3)Gal(b1-3)[Fuc(a1-4)]GlcNAc
Procedure, shortened: as §1

[19] = molecular target: Fuc(a1-3)[Gal(b1-4)]GlcNAc(b1-3)GalNAc
Procedure, shortened: as §1

[20] = molecular target: Fuc(a1-3)[Gal(b1-4)]GlcNAc(b1-4)Gal(b1-4)[Fuc(a1-3)]GlcNAc
Procedure, shortened: as §1

[21] = molecular target: Fuc(a1-3)[Gal(b1-4)]GlcNAc(b1-4)Gal(b1-4)[Fuc(a1-3)]GlcNAc(b1-4)Gal(b1-4)[Fuc(a1-3)]GlcNAc
Procedure, shortened: as §1

[22] = molecular target: Fuc(a1-3)[Gal(b1-4)]GlcNAc(b1-6)[Gal(b1-3)GlcNAc(b1-3)]Gal(b1-4)Glc
Procedure, shortened: as §1

[23] = molecular target: Fuc(a1-3)[Gal(b1-4)]GlcNAc6S
Procedure, shortened: as §1

[24] = molecular target: Fuc(a1-3)[Gal3S(b1-4)]GlcNAc
Procedure, shortened: as §1

[25] = molecular target: Fuc(a1-3)[Gal3S(b1-4)]GlcNAc6S
Procedure, shortened: as §1

[26] = molecular target: Fuc(a1-3)[GalNAc(b1-4)]GlcNAc
Procedure, shortened: as §1

[27] = molecular target: Fuc(a1-4)GlcNAc
Procedure, shortened: as §1

[28] = molecular target: Fuc(b1-3)GlcNAc
Procedure, shortened: as §1

[29] = molecular target: Gal(a1-2)Gal
Procedure, shortened: as §1

[30] = molecular target: Gal(a1-3)Gal
Procedure, shortened: as §1

[31] = molecular target: Gal(a1-3)Gal(b1-3)GlcNAc
Procedure, shortened: as §1

[32] = molecular target: Gal(a1-3)Gal(b1-3)GlcNAc(b1-2)Man(a1-3)[Gal(a1-3)Gal(b1-3)GlcNAc(b1-2)Man(a1-6)]Man(b1-4)GlcNAc(b1-4)GlcNAc
Procedure, shortened: as §1

[33] = molecular target: Gal(a1-3)Gal(b1-3)[Fuc(a1-4)]GlcNAc(b1-2)Man(a1-3)[Gal(a1-3)Gal(b1-3)[Fuc(a1-4)]GlcNAc(b1-2)Man(a1-6)]Man(b1-4)GlcNAc(b1-4)GlcNAc
Procedure, shortened: as §1

[34] = molecular target: Gal(a1-3)Gal(b1-4)Glc
Procedure, shortened: as §1

[35] = molecular target: Gal(a1-3)Gal(b1-4)GlcNAc
Procedure, shortened: as §1

[36] = molecular target: Gal(a1-3)Gal(b1-4)GlcNAc(b1-3)GalNAc
Procedure, shortened: as §1

[37] = molecular target: Gal(a1-3)Gal(b1-4)[Fuc(a1-3)]GlcNAc
Procedure, shortened: as §1

[38] = molecular target: Gal(a1-3)Gal(b1-4)[Fuc(a1-3)]GlcNAc(b1-2)Man(a1-3)[Gal(a1-3)Gal(b1-4)[Fuc(a1-3)]GlcNAc(b1-2)Man(a1-6)]Man(b1-4)GlcNAc(b1-4)GlcNAc
Procedure, shortened: as §1

B1: Galatrox (Botrops atrox), P0DM53 (protein)
chain: NNCPQDWLPMNGLCYKIFDELKAWKDAEMFCRKYKPGCHLASIILYGESPEWAEGHSEVWLGLWDKKKDFSWEWTDR
glycan array binding signal (z-score) [1]: -0.351
glycan array binding signal (z-score) [2]: -0.357
glycan array binding signal (z-score) [3]: -0.377
glycan array binding signal (z-score) [4]: -0.377
glycan array binding signal (z-score) [5]: -0.325
glycan array binding signal (z-score) [6]: -0.359
glycan array binding signal (z-score) [7]: -0.37
glycan array binding signal (z-score) [8]: -0.309
glycan array binding signal (z-score) [9]: -0.364
glycan array binding signal (z-score) [10]: 0.646
glycan array binding signal (z-score) [11]: -0.359
glycan array binding signal (z-score) [12]: 0.363
glycan array binding signal (z-score) [13]: -0.355
glycan array binding signal (z-score) [14]: -0.373
glycan array binding signal (z-score) [15]: -0.368
glycan array binding signal (z-score) [16]: -0.365
glycan array binding signal (z-score) [17]: -0.352
glycan array binding signal (z-score) [18]: -0.353
glycan array binding signal (z-score) [19]: 0.996
glycan array binding signal (z-score) [20]: -0.107
glycan array binding signal (z-score) [21]: -0.366
glycan array binding signal (z-score) [22]: 0.089
glycan array binding signal (z-score) [23]: 1.72
glycan array binding signal (z-score) [24]: -0.351
glycan array binding signal (z-score) [25]: 1.01
glycan array binding signal (z-score) [26]: -0.367
glycan array binding signal (z-score) [27]: -0.374
glycan array binding signal (z-score) [28]: -0.37
glycan array binding signal (z-score) [29]: -0.367
glycan array binding signal (z-score) [30]: -0.37
glycan array binding signal (z-score) [31]: 0.052
glycan array binding signal (z-score) [32]: 0.477
glycan array binding signal (z-score) [33]: -0.338
glycan array binding signal (z-score) [34]: -0.345
glycan array binding signal (z-score) [35]: -0.137
glycan array binding signal (z-score) [36]: -0.325
glycan array binding signal (z-score) [37]: -0.145
glycan array binding signal (z-score) [38]: 0.245
